{
  "source": "the supplement of paper PMC4604168 (melanoma cell lines)",
  "note": "The list shows a part of the results. Repeats are few or missing, and single values can be far off.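 Note: cells treated in 1,536-well plates, then fixed and DAPI-stained, with nuclei counted from automated high-throughput microscope images.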",
  "data": [
    {"system": "A2058", "assay": "cell count relative to DMSO control; higher = more viable cells", "conditions": "library dose: standard library concentration; 72 h", "units": {"cell count": "%"}, "values": [
      {"smiles": "O=C(Nc1cc(C(F)(F)F)cc(C(F)(F)F)c1)c1cc(Cl)ccc1O", "note": "+ Cc1ccc(Nc2nccc(N(C)c3ccc4c(C)n(C)nc4c3)n2)cc1S(N)(=O)=O [Pazopanib] (first compound 0.08 µM, partner dose 2 µM)", "cell count": 114},
      {"smiles": "O=C(O)c1ccc2c(c1)nc(Nc1cccc(Cl)c1)c1ccncc12", "note": "+ O=C(CCCCCCC(=O)Nc1ccccc1)NO [vorinostat] (first compound 2 µM, partner dose 0.4 µM)", "cell count": 84},
      {"smiles": "Cn1nnc2c(C(N)=O)ncn2c1=O", "note": "[temozolomide] + NC(=O)Nc1cc(-c2cccc(F)c2)sc1C(=O)N[C@H]1CCCNC1 [AZD7762] (first compound 10 µM, partner dose 0.1 µM)", "cell count": 17.2},
      {"smiles": "O=C(Nc1cc(C(F)(F)F)cc(C(F)(F)F)c1)c1cc(Cl)ccc1O", "note": "+ NC1(c2ccc(-c3nc4ccn5c(=O)[nH]nc5c4cc3-c3ccccc3)cc2)CCC1 [MK2206] (first compound 0.08 µM, partner dose 2 µM)", "cell count": 107},
      {"smiles": "O=C(O)[C@@H]1[O][Sb](=[O])([O][Sb]2(=[O])[O][C@H]([C@H](O)CO)[C@H](O)[C@H](C(=O)O)[O]2)[O][C@H]([C@H](O)CO)[C@@H]1O", "note": "(stereo partly specified) [stibogluconate] + Nc1cccc2c1CN(C1CCC(=O)NC1=O)C2=O [lenalidomide] (first compound 10 µM, partner dose 5 µM)", "cell count": 77.3},
      {"smiles": "O=C(O)[C@@H]1[O][Sb](=[O])([O][Sb]2(=[O])[O][C@H]([C@H](O)CO)[C@H](O)[C@H](C(=O)O)[O]2)[O][C@H]([C@H](O)CO)[C@@H]1O", "note": "(stereo partly specified) [stibogluconate] + Nc1nc(F)nc2c1ncn2[C@@H]1O[C@H](CO)[C@@H](O)[C@@H]1O [fludarabine] (first compound 10 µM, partner dose 1 µM)", "cell count": 74.8},
      {"smiles": "O=C(O)c1ccc2c(c1)nc(Nc1cccc(Cl)c1)c1ccncc12", "note": "+ OCc1c[nH]c2ccccc12 [Indole-3-carbinol] (first compound 2 µM, partner dose 4 µM)", "cell count": 86.3},
      {"smiles": "Cn1nnc2c(C(N)=O)ncn2c1=O", "note": "[temozolomide] + Cn1cncc1[C@@](N)(c1ccc(Cl)cc1)c1ccc2c(c1)c(-c1cccc(Cl)c1)cc(=O)n2C [tipifarnib] (first compound 10 µM, partner dose 0.05 µM)", "cell count": 35.2}
    ]},
    {"system": "A375", "assay": "cell count relative to DMSO control; melanoma cells; higher = more viable cells", "conditions": "library dose: standard library concentration; 72 h", "units": {"cell count": "%"}, "values": [
      {"smiles": "O=C(Nc1cc(C(F)(F)F)cc(C(F)(F)F)c1)c1cc(Cl)ccc1O", "note": "+ CS(=O)(=O)c1ccc(C(=O)Nc2ccc(Cl)c(-c3ccccn3)c2)c(Cl)c1 [vismodegib] (first compound 0.08 µM, partner dose 5 µM)", "cell count": 101},
      {"smiles": "O=C(Nc1cc(C(F)(F)F)cc(C(F)(F)F)c1)c1cc(Cl)ccc1O", "note": "+ CN(C)S(=O)(=O)c1ccc2c(c1)/C(=C/c1cc3c([nH]1)CCCC3)C(=O)N2 [SU6656] (first compound 0.08 µM, partner dose 2 µM)", "cell count": 167},
      {"smiles": "O=C(O)c1ccc2c(c1)nc(Nc1cccc(Cl)c1)c1ccncc12", "note": "+ COc1cc2c(Oc3ccc4[nH]c(C)cc4c3F)ncnc2cc1OCCCN1CCCC1 [cediranib] (first compound 2 µM, partner dose 2 µM)", "cell count": 87.6},
      {"smiles": "O=C(Nc1cc(C(F)(F)F)cc(C(F)(F)F)c1)c1cc(Cl)ccc1O", "note": "+ Cn1nnc2c(C(N)=O)ncn2c1=O [temozolomide] (first compound 0.08 µM, partner dose 10 µM)", "cell count": 81.6},
      {"smiles": "O=C(O)c1ccc2c(c1)nc(Nc1cccc(Cl)c1)c1ccncc12", "note": "+ C=C(c1ccc(C(=O)O)cc1)c1cc2c(cc1C)C(C)(C)CCC2(C)C [Bexarotene] (first compound 2 µM, partner dose 10 µM)", "cell count": 90},
      {"smiles": "O=C(Nc1cc(C(F)(F)F)cc(C(F)(F)F)c1)c1cc(Cl)ccc1O", "note": "+ CCCCCCCCCCCC1=C(O)C(=O)C=C(O)C1=O [Embelin] (first compound 0.08 µM, partner dose 6 µM)", "cell count": 92.6},
      {"smiles": "O=C(Nc1cc(C(F)(F)F)cc(C(F)(F)F)c1)c1cc(Cl)ccc1O", "note": "+ CCCCCCCCCCCCCCCCCCOP(=O)([O-])OC1CC[N+](C)(C)CC1 [Perifosine] (first compound 0.08 µM, partner dose 2 µM)", "cell count": 66},
      {"smiles": "O=C(Nc1cc(C(F)(F)F)cc(C(F)(F)F)c1)c1cc(Cl)ccc1O", "note": "+ C#Cc1cccc(Nc2ncnc3cc(OCCOC)c(OCCOC)cc23)c1 [erlotinib] (first compound 0.08 µM, partner dose 4 µM)", "cell count": 97.2},
      {"smiles": "Cn1nnc2c(C(N)=O)ncn2c1=O", "note": "[temozolomide] + OCCn1cc(-c2cnc3nnn(Cc4ccc5ncccc5c4)c3n2)cn1 [PF04217903] (first compound 10 µM, partner dose 5 µM)", "cell count": 99.7},
      {"smiles": "O=C(O)[C@@H]1[O][Sb](=[O])([O][Sb]2(=[O])[O][C@H]([C@H](O)CO)[C@H](O)[C@H](C(=O)O)[O]2)[O][C@H]([C@H](O)CO)[C@@H]1O", "note": "(stereo partly specified) [stibogluconate] + Cn1nnc2c(C(N)=O)ncn2c1=O [temozolomide] (first compound 10 µM, partner dose 10 µM)", "cell count": 98.5},
      {"smiles": "O=C(Nc1cc(C(F)(F)F)cc(C(F)(F)F)c1)c1cc(Cl)ccc1O", "note": "+ COc1ccc(Cl)c(Nc2nc3ccccc3nc2NS(=O)(=O)c2cccc(NC(=O)C(C)(C)N)c2)c1 [XL147] (first compound 0.08 µM, partner dose 4 µM)", "cell count": 90.5},
      {"smiles": "O=C(Nc1cc(C(F)(F)F)cc(C(F)(F)F)c1)c1cc(Cl)ccc1O", "note": "+ Cc1cc(Nc2cc(N3CCN(C)CC3)nc(/C=C/c3ccccc3)n2)n[nH]1 [ENMD2076] (first compound 0.08 µM, partner dose 0.2 µM)", "cell count": 71.2},
      {"smiles": "O=C(O)[C@@H]1[O][Sb](=[O])([O][Sb]2(=[O])[O][C@H]([C@H](O)CO)[C@H](O)[C@H](C(=O)O)[O]2)[O][C@H]([C@H](O)CO)[C@@H]1O", "note": "(stereo partly specified) [stibogluconate] + COc1cc2c(Oc3ccc4[nH]c(C)cc4c3F)ncnc2cc1OCCCN1CCCC1 [cediranib] (first compound 10 µM, partner dose 2 µM)", "cell count": 142},
      {"smiles": "O=C(Nc1cc(C(F)(F)F)cc(C(F)(F)F)c1)c1cc(Cl)ccc1O", "note": "+ CO[C@@H]1[C@H](N(C)C(=O)c2ccccc2)C[C@H]2O[C@]1(C)n1c3ccccc3c3c4c(c5c6ccccc6n2c5c31)C(=O)NC4 [Midostaurin] (first compound 0.08 µM, partner dose 0.4 µM)", "cell count": 74},
      {"smiles": "O=C(O)[C@@H]1[O][Sb](=[O])([O][Sb]2(=[O])[O][C@H]([C@H](O)CO)[C@H](O)[C@H](C(=O)O)[O]2)[O][C@H]([C@H](O)CO)[C@@H]1O", "note": "(stereo partly specified) [stibogluconate] + CN(NC(=O)CC(=O)NN(C)C(=S)c1ccccc1)C(=S)c1ccccc1 [STA4783] (first compound 10 µM, partner dose 0.03 µM)", "cell count": 142},
      {"smiles": "O=C(Nc1cc(C(F)(F)F)cc(C(F)(F)F)c1)c1cc(Cl)ccc1O", "note": "+ OCCn1cc(-c2cnc3nnn(Cc4ccc5ncccc5c4)c3n2)cn1 [PF04217903] (first compound 0.08 µM, partner dose 5 µM)", "cell count": 110},
      {"smiles": "Cc1cc(N2CCOCC2)cc2[nH]c(-c3c(NC[C@@H](O)c4cccc(Cl)c4)cc[nH]c3=O)nc12", "note": "+ CN(C)S(=O)(=O)c1ccc2c(c1)/C(=C/c1cc3c([nH]1)CCCC3)C(=O)N2 [SU6656] (first compound 1 µM, partner dose 2 µM)", "cell count": 124},
      {"smiles": "O=C(O)[C@@H]1[O][Sb](=[O])([O][Sb]2(=[O])[O][C@H]([C@H](O)CO)[C@H](O)[C@H](C(=O)O)[O]2)[O][C@H]([C@H](O)CO)[C@@H]1O", "note": "(stereo partly specified) [stibogluconate] + COc1cc(Nc2ncc(F)c(Nc3ccc4c(n3)NC(=O)C(C)(C)O4)n2)cc(OC)c1OC [Tamatinib] (first compound 10 µM, partner dose 2 µM)", "cell count": 115},
      {"smiles": "O=C(Nc1cc(C(F)(F)F)cc(C(F)(F)F)c1)c1cc(Cl)ccc1O", "note": "+ Cc1ccc(NC(=O)c2cccc(N(C)C)c2)cc1NC(=O)c1ccc(O)cc1 [ZM336372] (first compound 0.08 µM, partner dose 10 µM)", "cell count": 113},
      {"smiles": "O=C(O)c1ccc2c(c1)nc(Nc1cccc(Cl)c1)c1ccncc12", "note": "+ Nc1nc(F)nc2c1ncn2[C@@H]1O[C@H](CO)[C@@H](O)[C@@H]1O [fludarabine] (first compound 2 µM, partner dose 1 µM)", "cell count": 22.7},
      {"smiles": "Cn1nnc2c(C(N)=O)ncn2c1=O", "note": "[temozolomide] + Cc1cc(N2CCOCC2)cc2[nH]c(-c3c(NC[C@@H](O)c4cccc(Cl)c4)cc[nH]c3=O)nc12 [BMS536924] (first compound 10 µM, partner dose 1 µM)", "cell count": 73.7},
      {"smiles": "O=C(O)[C@@H]1[O][Sb](=[O])([O][Sb]2(=[O])[O][C@H]([C@H](O)CO)[C@H](O)[C@H](C(=O)O)[O]2)[O][C@H]([C@H](O)CO)[C@@H]1O", "note": "(stereo partly specified) [stibogluconate] + NC(=O)Nc1cc(-c2cccc(F)c2)sc1C(=O)N[C@H]1CCCNC1 [AZD7762] (first compound 10 µM, partner dose 0.1 µM)", "cell count": 60.9},
      {"smiles": "O=C(O)[C@@H]1[O][Sb](=[O])([O][Sb]2(=[O])[O][C@H]([C@H](O)CO)[C@H](O)[C@H](C(=O)O)[O]2)[O][C@H]([C@H](O)CO)[C@@H]1O", "note": "(stereo partly specified) [stibogluconate] + COc1ccc(Cl)c(Nc2nc3ccccc3nc2NS(=O)(=O)c2cccc(NC(=O)C(C)(C)N)c2)c1 [XL147] (first compound 10 µM, partner dose 4 µM)", "cell count": 99.9}
    ]}
  ]
}
